± gives the standard deviation of the averaged measurements. The list shows a part of the results.

The assay concerns PfAP2-I AP2 domain 3 (GST-tagged). Put plainly: gcPBM binding intensity (ln(normalized median fluorescence intensity)); higher = stronger DNA binding. In outline:
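An Agilent 4 × 180k array of primer-extended double-stranded 36-bp intergenic genomic probes, with negative controls, was incubated for 1 h with GST-tagged P. falciparum DNA-binding domains expressed in E. coli. Alexa488 anti-GST antibody detected bound protein, scanned at 488 nm. Binding intensity is the highest Masliner-normalised natural-log median intensity across replicate spots of either probe orientation.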
As to “GTTCAAATTCTTATACCTTTTTATTGAGCCATAATA [CACACA_negctrl_site210]”, the “gcPBM binding intensity (ln)” value was determined as 7.92 ± 0.68.
Then “AAAAAAAGAAAAAAAACACACACAAATATAAATAAA [CACACA_site8309]”, with 7.48 ± 0.59; and “CCAAATTTATAAAGAACACACACATATATATATATA [CACACA_site7900]”, with 9.29 ± 0.18.
Then “TATACATATTTAATATGTACATAATAATACTTATTC [XGTACX_site6939]”, with 7.46 ± 0.4; and “AAGCATGTAGAATAATGTACTTGTGATTTTAATATA [XGTACX_site8565]”, with 7.45 ± 0.27.
The value for AAAAAAAAAATACAGGTGCAATAAGAAAAAAATGGT was 11.4 ± 0.57.
For “TATATTAACAAAATGGTGCAATAATTTCTATATTAT [GTGCAC_site9857]”, the “gcPBM binding intensity (ln)” value was 11.3 ± 0.61.
On to “AAAAATAAAAAAATAATAAAATAAAAAATAAAAAAT [TGCATGCA_negctrl_site89]”, for which the “gcPBM binding intensity (ln)” value stood at 7.57 ± 0.68.
Then “TAAAAAAACATATATTGTACGGAGATAATAATTTTT [XGTACX_site2946]”, with 7.67 ± 0.72.
For “ATGTATAAACATATATGTACTTAAATAAAATGTTAA [XGTACX_site4044]”, the “gcPBM binding intensity (ln)” value was determined as 7.92 ± 0.27.
The value for “CACCAATTCATATGCACACACATCTGCATATTATAT [CACACA_site1773]” was 9.06 ± 0.28; that for “ATTAAAAGAACAATGTAAAAAAAGCAAATTAAAGAT [TGCATGCA_negctrl_site360]” was 8.13 ± 0.73; that for “TATACTGTCAATTCTACACACCATAGGGGGAGCATA [CACACA_site1875]” was 9.22.
In the case of “TTATTAAATGAAAAATGTACATATAAATGATTATAT [XGTACX_site2788]”, the “gcPBM binding intensity (ln)” value was 7.76 ± 0.66.
Then “GAAATGTGTAGACACGCACACACAAAAAAATATATA [CACACA_site2912]”, with 7.77 ± 0.51.
Then “ATAAAAATATAAACATGTACATAAAAATCTATATAT [XGTACX_site405]”, with 8.01 ± 0.54; and “TTGCTTATATTTCTAAAATGTAAAAGACACAAAGGT [XGTACX_negctrl_site225]”, with 8.29 ± 0.34.
Then “TTCTAATATATGCATACACACAAATGTGAATATACA [CACACA_site2142]”, with 8.23 ± 0.51; and “TTTTTTATTACTTTGTGTACTTACACAGAACCTTAT [XGTACX_site6038]”, with 8.24 ± 0.35.
Consider “AAAAATGCAATTTAATGTACACATAAGATGTTATTT [XGTACX_site6853]”, for which the “gcPBM binding intensity (ln)” value is 7.66 ± 0.6.
Then “AAAAAAAAAAAAAACACACACACACCCAAATATATA [CACACA_site1169]”, with 8.35 ± 0.39; and “ATATATTTATTTATATGTACATAATATTTTTCTCAG [XGTACX_site800]”, with 7.9 ± 0.34.
Take “AATTCTTTTTTCAACACACACACACCCGAAAATATA [CACACA_site3111]”: the “gcPBM binding intensity (ln)” value was 8.48 ± 0.16.
Then “ATATAGGTAATATTTTGTACATATTTTTGGGGTAGT [XGTACX_site5634]”, with 8.24 ± 0.69; and “AGATACTTTTTTAAAAGTACAAAAACTTTCGATATA [XGTACX_site959]”, with 7.59 ± 0.32.
Consider “ATATTTTTTGTATGTTGTACATAAAATATACATTTT [XGTACX_site6815]”, for which the “gcPBM binding intensity (ln)” value came to 7.71 ± 0.42.
The value for “CATACATACATACATACACACATACATATATATATA [CACACA_site8388]” was 9.43 ± 0.25; that for “TCTAAAATAGTCCAGAGTACAAGAAACCATAATATA [XGTACX_site5237]” was 7.62 ± 0.57; that for “ACATTTATTTTGAATGGTACACTATTATTATGAAAT [XGTACX_site4384]” was 7.78 ± 0.35.
The value for “GACCTACAAAAAGGCACACATATACTCATACATACA [CACACA_site5232]” was 8.32 ± 0.36; that for GTGTAATGCTTATCGGTGCATATATATATATATATA was 10.5 ± 0.33; that for “AAAAAAAAAAAAGGTACTACACACTATTATCAATAG [XGTACX_site161]” was 7.77 ± 0.38.
Take “GATAATTTTTGCATATGTACTTAAAAATTAAAAATT [XGTACX_site7037]”: the “gcPBM binding intensity (ln)” value was determined as 8.04 ± 0.18.
The value for “TTTTTTAAACGTTTAAATAATTAAATATAAATAAAT [CACACA_negctrl_site1567]” was 7.41 ± 0.58; that for “TGAACAACTATTACTGCACACATTCTTACACTATAT [CACACA_site4533]” was 10.1 ± 0.33.
Regarding “AAAAAAGAAACAATCGCATGCAATGTTAATGTACAT [TGCATGCA_site395]”, the “gcPBM binding intensity (ln)” value was determined as 7.84 ± 0.74.
Then “AGGTGTCATATATGCACACAAAAGTAACACGCACCT [CACACA_site472]”, with 9.92 ± 0.14; and “TACGCAAAATAAAATCAAAATATAAGGAAAAAAAAA [TGCATGCA_negctrl_site578]”, with 7.58 ± 0.73.
On to “TCTAATAAAATAAATACATGCATACATACATACATA [TGCATGCA_site895]”, for which the “gcPBM binding intensity (ln)” value turned out to be 7.76 ± 0.63.
Then “AGGATTATATATTAATGTACCCGCGTTAATTTTTTT [XGTACX_site2878]”, with 7.82 ± 0.49.
Then “AAATAGAGAAATACAAGTACATACTAAACCTATCTA [XGTACX_site1334]”, with 7.49 ± 0.69.
The value for “TAATATTTATCAAGTCGTACATAAAATGTATAATAA [XGTACX_site1103]” was 7.91 ± 0.26.
For the sequence “ACAAAGAAATATAATACACACAAGAATATATTGGAT [CACACA_site3901]”, the “gcPBM binding intensity (ln)” value stood at 7.9 ± 0.68.
The value for “GTACAATAAGATGTAGCATGCCGTACCTTCACTACG [TGCATGCA_site235]” was 7.72 ± 0.79.

The values are drawn from the supplement of paper PMC11417369.
